Test results as given in US20240277658A1, “NLRP3 ACTIVATORS FOR USE IN THE TREATMENT OF INFECTIOUS DISEASES OR CANCER BY ACTIVATING NLRP3 INFLAMMASOME” (ALBERT-LUDWIGS-UNIVERSITÄT FREIBURG, priority 2020, published 2024).
Where “and” joins values, the source holds several entries; their conditions need not be identical. Equal values may be shown once. At least one read-out could not be matched to a standard name with certainty.

Test system: BMDCs
Assay: LDH release (lytic cell death, pyroptosis) from LPS-primed BMDCs
Assay type: cell-based, mouse
Description: This was tested in cell culture in several different in vitro assays classically used to investigate inflammasome activation. These include measuring inflammasome-dependent lytic cell death (pyroptosis) by detecting release of the cytosolic enzyme lactate dehydrogenase (LDH) using a commercial colorimetric assay and release of proinflammatory cytokines like IL-1β by enzyme-linked immunosorbent assay (ELISA), analyzing cleavage and activation of caspase-1 and IL-1β by immunoblotting and immunofluorescence imaging of ASC speck formation. Lytic cell death was determined via LDH release. Assay results for compounds are illustrated in the Tables below, wherein the concentration of the compounds tested had been 50 μM or as indicated in the table, and the concentration of the known activators has been tested with 5 μM of nigericin, 100 μM of each R837 and CL097. For classification of the activity of a given molecule, release of IL-1β was quantified as % of IL-1% of a respective control activator used for the experiment (highlighted in tables with bold letters). The compounds listes in Table 1 were classified into 4 groups depending on their ability to induce the NLRP3 inflammasome activation, assessed by % IL-1β release as compared to the positive control.
Mouse bone marrow-derived dendritic cells (BMDCs) were isolated from femurs and tibias previously described (Gross, Olaf, 2012, “Measuring the inflammasome”, Methods in molecular biology, Clifton, N.J., 844, pp. 199-222.). In brief, tibias and femurs were carefully removed and put to sterile 70% ethanol for 1 minute. Using a 22-G needle attached to a 20 ml-syringe filled with sterile flushing medium, the bone marrow was pressed through the mesh of a […] cell strainer. The cells were spun down by centrifugation at 400×g, 4° C. for 5 minutes and red blood cells lysed by resuspension and incubation for 5 minutes at room temperature in RBC lysis buffer. 9 ml of flushing medium were added and cells were again spun down by centrifugation at 400×g, 4° C. for 5 minutes. Cells were then resuspended in BMDC medium (RPMI, 10% fetal bovine serum, 1% penicillin-streptomycin100 U/ml, 20 ng/ml recombinant murine GM-CSF), counted and plated at a density of 0.5×10^6 cells ml^−1 in 10 ml medium and incubated at 37° C., 5% CO2 in a humidified incubator. After 2 days, 10 ml of fresh medium were added to the cells and after 4 days, the medium was fully exchanged to 20 ml of fresh medium. The cells were allowed to differentiate for 6 to 8 days before usage.
For canonical inflammasome activation BMDCs after 7-9 days of differentiation were harvested and counted with a Neubauer Chamber (Hecht Assistant) and the concentration was set to 1 Mio cells ml^−1. 100 μl cell suspension per well were seeded in 96-well plates. The cells were primed with 50 ng ml^−1 E. coli K12 ultra-pure LPS for 3 hours and subsequently treated with canonical inflammasome activators or experimental compounds for 3 hours if not indicated differently (incubation time FIG. 4D, 5, 7, 8, 11, 13-18: 3 h, FIG. 12: 4 h). Concentrations of the stimuli were as follows if not indicated differently: 5 μM nigericin, 100 μM imiquimod (also known as R837), 100 μM CL097, 100 μM R848, […] poly(dA:dT), 300 μg ml^−1 MSU. If an inhibitor was used before stimuli treatment, the inhibitor was added after 2.5 hours of priming and it was incubated for 30 minutes before inflammasome activation. Inhibitors were used as follows: 3 μM MCC950, 45 mM KCl, 30 μM ebselen (2-Phenyl-1,2-benzoselenazol-3-one), 5 μM cytochalasin D (see FIGS. 8, 11, 12 and 17).
All inflammasome stimulations were performed in three technical replicates for each condition. […]

[1] = single replicates, compound 50 μM, LPS-primed BMDCs
[2] = 25 μM, individual replicate values, AH series table
[3] = 50 μM, individual replicate values, AH series table
[4] = 75 μM, individual replicate values

O=C(Nc1ccccc1)Nc1ccc2c(c1)CCC2 [L01.066, 3-(2,3-dihydro-1H-inden-5-yl)-1-phenyl-urea]
LDH release (% of max.) [1]: 15.078 % of max. and 12.310 % of max.

COc1cccc(NC(=O)N(C)Cc2nc(-c3cccnc3)no2)c1 [L01.136, 1-(3-methoxyphenyl)-3-methyl-3-{[3-(pyridin-3-yl)-1,2,4-oxadiazol-5-yl]methyl}urea]
LDH release (% of max.) [1]: 7.428 % of max. and 6.391 % of max.

O=C(Nc1cccc(S(=O)(=O)C2CCCC2)c1)N1CCCCC1c1nc(-c2ccccc2)no1 (centres unmarked) [L01.099, N-[3-(cyclopentane-sulfonyl)phenyl]-2-(3-phenyl-1,2,4-oxadiazol-5-yl)piperidine-1-carboxamide]
LDH release (% of max.) [1]: 9.299 % of max. and 9.572 % of max.

O=C(Nc1ccccc1)Nc1ccc(NC(=O)C(F)F)cc1 [L01.016, 2,2-difluoro-N-{4-[(phenylcarbamoyl)-amino]phenyl}acet-amide]
LDH release (% of max.) [1]: 12.903 % of max. and 13.299 % of max.

Cc1ccc(N2C(=O)C(=O)N(Cc3nc(-c4ccsc4)no3)C2=O)cc1 [L01.071, 1-(4-methylphenyl)-3-{[3-(thiophen-3-yl)-1,2,4-oxadiazol-5-yl]-methyl}imidazolidine-2,4,5-trione]
LDH release (% of max.) [1]: 9.438 % of max. and 7.518 % of max.

S=C(Nc1ccccc1)Nc1ccc2ncccc2c1 [AH4, 1-phenyl-3-(quinolin-6-yl) thiourea]
LDH release (% of max.) [2]: 17.994 % of max. and 18.179 % of max.
LDH release (% of max.) [3]: 55.868 % of max. and 55.036 % of max.
LDH release (% of max.) [4]: 68.689 % of max. and 68.988 % of max.

Cc1c(F)cccc1CN1CCCC(Cc2nc(-c3ccc(NC(=O)Nc4ccccc4)cc3)no2)C1 (centres unmarked) [PM16, 1-(4-(5-((1-(3-fluoro-2-methylbenzyl)piperidin-3-yl)methyl)-1,2,4-oxadiazol-3-yl)phenyl)-3-phenylurea]
LDH release (% of max.) (section 1.4, single replicates, 18.75 μM): 74.209 % of max. and 72.166 % of max.
LDH release (% of max.) (section 1.4, single replicates, 37.5 μM): 89.909 % of max. and 91.152 % of max.
LDH release (% of max.) (section 1.4, single replicates, 75 μM): 95.086 % of max. and 96.871 % of max.

COc1cccc(C)c1NC(=O)NC(c1nc(-c2cccnc2)no1)C(C)C (centres unmarked) [L01.056, 1-(2-methoxy-6-methyl-phenyl)-3-{2-methyl-1-[3-(pyridin-3-yl)-1,2,4-oxadiazol-5-yl]propyl}-urea]
LDH release (% of max.) [1]: 10.160 % of max. and 9.599 % of max.

CN(C)Cc1ccc(NC(=O)Nc2ccccc2)cc1 [L01.121, 3-{4-[(dimethylamino)-methyl]phenyl}-1-phen-ylurea]
LDH release (% of max.) [1]: 9.369 % of max. and 8.962 % of max.

O=C(Nc1ccccc1)Nc1cccc(NC(=O)NC2CC2)c1 [L01.122, 3-cyclopropyl-1-{3-[(phenylcarbamoyl)-amino]phenyl}urea]
LDH release (% of max.) [1]: 8.128 % of max. and 6.967 % of max.

COc1ccccc1NC(=O)NCc1nc(-c2ccc(C(F)(F)F)cc2)no1 [EN21, 1-(2-methoxyphenyl)-3-((3-(4-(trifluoromethyl)phenyl)-1,2,4-oxadiazol-5-yl)methyl)urea]
LDH release (% of max.) [1]: 36.356 % of max. and 47.704 % of max. and 43.019 % of max. and 50.628 % of max. and 60.994 % of max. and 63.141 % of max.

O=C(Nc1ccccc1)Nc1ccc(C(=O)N2CCC2)cc1 [L01.008, 1-[4-(azetidine-1-carbon-yl)phenyl]-3-phenylurea]
LDH release (% of max.) [1]: 9.763 % of max. and 7.910 % of max.

CCCCOC(=O)c1ccc(NC(=O)NC(CC(C)C)c2nc(-c3nnc[nH]3)no2)cc1 (centres unmarked) [L01.135, butyl 4-[{{3-methyl-1-[3-(4H-1,2,4-triazol-3-yl)-1,2,4-oxadiazol-5-yl]-butyl}carbamoyl)amino]-benzoate]
LDH release (% of max.) [1]: 7.690 % of max. and 7.743 % of max.

Cc1ccc(NC(=O)Nc2ccccc2)cc1NC(=O)NC(C)C [L01.041, 3-(4-methyl-3-[(propan-2-yl)carbamoylamino}-phenyl)-1-phenylurea]
LDH release (% of max.) [1]: 24.119 % of max. and 23.567 % of max.

COc1ccc(NC(=O)Nc2ccccc2)cc1Cl [L01.026, 3-(3-chloro-4-methoxy-phenyl)-1-phenylurea]
LDH release (% of max.) [1]: 9.969 % of max. and 13.232 % of max.

N#CCOc1ccc(NC(=O)Nc2ccccc2)cc1 [L01.002, 1-[4-(cyanomethoxy)-phenyl]-3-phenylurea]
LDH release (% of max.) [1]: 10.017 % of max. and 11.898 % of max.

CCc1ccc(Cl)c(CC)c1NC(=O)NC(c1nc(-c2cccnc2)no1)C(C)C (centres unmarked) [L01.113, 1-(3-chloro-2,6-diethyl-phenyl)-3-{2-methyl-1-[3-(pyridin-3-yl)-1,2,4-oxadiazol-5-yl]propyl}-urea]
LDH release (% of max.) [1]: 36.390 % of max. and 34.335 % of max.

N#Cc1ccc(NC(=O)Nc2ccc3ncccc3c2)cc1 [JB011, 1-(4-cyanophenyl)-3-(quinolin-6-yl)urea]
LDH release (% of max.) (20 μM, individual replicate values): 12.278 % of max. and 11.156 % of max.
LDH release (% of max.) (40 μM, individual replicate values): 13.286 % of max. and 13.733 % of max.
LDH release (% of max.) (80 μM, individual replicate values): 16.371 % of max. and 17.276 % of max.

O=C(Nc1ccc2ncccc2c1)Nc1ccc2ncccc2c1 [EN-A, 1,3-di(quinolin-6-yl)urea]
LDH release (% of max.) (section 1.2, single replicates, 25 μM): 33.093 % of max. and 32.555 % of max.
LDH release (% of max.) (section 1.2, single replicates, 50 μM): 32.628 % of max. and 32.392 % of max.
LDH release (% of max.) (section 1.2, single replicates, 100 μM): 33.136 % of max. and 31.042 % of max.

Cc1ccc(NC(=O)Nc2ccccc2)cc1NC(=O)C(F)F [L01.116, 2,2-difluoro-N-{2-meth-yl-5-[(phenylcarbamo-yl)amino]phenyl}acet-amide]
LDH release (% of max.) [1]: 18.328 % of max. and 17.892 % of max.

O=C(NCc1ccccc1)NCc1ccc2ncccc2c1 [EN11-11, 3-benzyl-1-[(quinolin-6-yl)methyl]urea]
LDH release (% of max.) (25 μM, individual replicate values, EN11 series table): 6.552 % of max. and 5.506 % of max. and 1.276 % of max.
LDH release (% of max.) (50 μM, individual replicate values, EN11 series table): 6.570 % of max. and 5.610 % of max. and 0.416 % of max.
LDH release (% of max.) (100 μM, individual replicate values): 6.309 % of max. and 4.141 % of max.

O=C(Nc1cc(C(F)F)ns1)Nc1cc(F)ncc1CO [BRM/BRG1 ATP Inhibitor-1, reference compound]
LDH release (% of max.) (section 1.3, single replicates, 5 μM): 16.194 % of max. and 19.482 % of max.
LDH release (% of max.) (section 1.3, single replicates, 50 μM): 36.463 % of max. and 31.314 % of max.
LDH release (% of max.) (section 1.3, single replicates, 100 μM): 18.468 % of max. and 28.907 % of max.

CC(=NO)c1ccc(NC(=O)Nc2ccccc2)cc1 [L01.095, 3-{4-[1-(hydroxyimino)-ethyl]phenyl}-1-phenyl-urea]
LDH release (% of max.) [1]: 7.088 % of max. and 5.172 % of max.

O=C(Nc1ccccc1)Nc1ccc(NC(=O)c2ccco2)cc1 [L01.064, N-{4-[(phenylcarbamo-yl)amino]phenyl}furan-2-carboxamide]
LDH release (% of max.) [1]: 8.659 % of max. and 8.624 % of max.

Cc1ccc(N2C(=O)N(Cc3nc(-c4ccc(F)cc4)no3)C(=O)C2C)cc1 (centres unmarked) [L01.130, 3-{[3-(4-fluorophenyl)-1,2,4-oxadiazol-5-yl]-methyl}-5-methyl-1-(4-methylphenyl)imidazol-idine-2,4-dione]
LDH release (% of max.) [1]: 8.722 % of max. and 7.450 % of max.

Cc1c(F)cccc1NC(=O)Nc1cccc(Cl)c1 [AH3, 1-(3-chlorophenyl)-3-(3-fluoro-2-methylphenyl) urea]
LDH release (% of max.) [2]: 13.259 % of max. and 12.460 % of max.
LDH release (% of max.) [3]: 22.899 % of max. and 22.877 % of max.
LDH release (% of max.) [4]: 33.827 % of max. and 33.778 % of max.

O=C(Nc1ccccc1)Nc1ccc(NC(=O)C2CCCC2)cc1 [L01.104, N-{4-[(phenylcarbamo-yl)amino]phenyl}cyclo-pentanecarboxamide]
LDH release (% of max.) [1]: 17.671 % of max. and 19.727 % of max.
